Some of the results follow. At the low end of the ranking the order means little.

The results in this text go back to article PMC10668032.

This experiment has as its target SIX1-Q177R homeodomain (UniProt Q15475). Nature of the experiment: universal protein binding microarray. As to conditions: Universal all-10-mer PBM (8x60K, AMADID 030236), 300 nM GST-tagged protein, Alexa Fluor 488 anti-GST; buffer, salt, pH and temperature not stated; high values mean tight binding; most listed sequences are background and not binding sites; double strand, one strand shown.
Take AGGATGAG: the binding signal was -0.166 E-score.
On to CTGGACAG, for which the binding signal is -0.198 E-score.
Take GATGCTAA: the binding signal is -0.0395 E-score.
With TTATCAAA, the binding signal is -0.0157 E-score.
Turning to AGTAACCG, the binding signal is -0.126 E-score.
In the case of GATCTGAA, the binding signal is -0.0826 E-score.
On to GGACGGTA, for which the binding signal is -0.133 E-score.
In the case of CCCCACCA, the binding signal is 0.145 E-score.
For AAGTCAAA, the binding signal is -0.304 E-score.
With AGACACCA, the binding signal turned out to be 0.458 E-score.
With GTTTGCAA, the binding signal is -0.00683 E-score.
In the case of GATGCGTA, the binding signal is -0.0193 E-score.
Then ATAACAAT, with -0.0462 E-score; and GTGCTGTA, with 0.164 E-score; and TAAACTTA, with -0.0745 E-score.
With GAAATGAC, the binding signal is -0.026 E-score.
As for ATTTCAGG, the binding signal was -0.0309 E-score.
Turning to TGCGCCCA, the binding signal was -0.0981 E-score.
Then TACTAAGA, with 0.0294 E-score; and ACTCCAGA, with 0.0779 E-score.
As to TCTCATAA, the binding signal was -0.00628 E-score.
Consider GGTTAGAC, for which the binding signal is -0.0877 E-score.
Then TAAGCGAA, with -0.174 E-score.
Consider TACATCTA, for which the binding signal was -0.226 E-score.
Take ACTACGAG: the binding signal is 0.0471 E-score.
For the sequence CAACAGCA, the binding signal is -0.142 E-score.
Regarding GACAGTTA, the binding signal was -0.0963 E-score.
In the case of CAGTTTCG, the binding signal was -0.11 E-score.
Consider ACAAAATC, for which the binding signal was -0.328 E-score.
On to CAGACATC, for which the binding signal is -0.14 E-score.
Then ATTTCGGG, with -0.122 E-score; and CATGTCCG, with -0.149 E-score.
Consider GGGAACAC, for which the binding signal is 0.368 E-score.
Regarding CGTATACC, the binding signal turned out to be 0.0016 E-score.
With ATCCTTTC, the binding signal is 0.0221 E-score.
As to ATTGCTAG, the binding signal was -0.016 E-score.
Turning to CTAGCACC, the binding signal worked out at 0.203 E-score.
Then AAGTTCTG, with -0.224 E-score.
Consider AACGTACT, for which the binding signal is -0.0149 E-score.
CGAACAGA: the binding signal is -0.184 E-score.
Turning to GTCCCCCA, the binding signal is -0.277 E-score.
On to ACTGTTCC, for which the binding signal was -0.249 E-score.
For the sequence CTACATGC, the binding signal was -0.101 E-score.
With GAATGTCC the figure was -0.205 E-score.
Turning to CCGTGGTA, the binding signal came out at 0.166 E-score.
GTTCCCCA: the binding signal is -0.0128 E-score.
Then CCACGCAA, with 0.0824 E-score; and ACGGTTGA, with -0.189 E-score; and TAAAGATA, with -0.0162 E-score.
Consider GCCAGATA, for which the binding signal was determined as 0.0012 E-score.
Take CGCATACG: the binding signal was -0.0785 E-score.
For the sequence CTACCAAC, the binding signal was 0.0578 E-score.
Then CACTACTC, with 0.21 E-score; and AGACAGAA, with -0.129 E-score; and ATTCGGCA, with 0.0233 E-score.
Consider ATCCTAAC, for which the binding signal was -0.0309 E-score.
As to CTGATAAC, the binding signal was 0.0865 E-score.
As for CACCTGTA, the binding signal is 0.232 E-score.
In the case of GACGACGC, the binding signal was -0.115 E-score.
Turning to CTAACAAC, the binding signal is -0.101 E-score.
Turning to AGCTCACG, the binding signal is -0.255 E-score.
Consider ATCCATCC, for which the binding signal is -0.0336 E-score.
Turning to AACTCCTC, the binding signal was determined as 0.0476 E-score.
With TAACCCTA the figure was 0.143 E-score; with GCTCAAAC, -0.0213 E-score.
With CCGTCGAG the figure was 0.112 E-score; with CATATTTC, 0.0184 E-score.
Consider CAAGCTTC, for which the binding signal was -0.292 E-score.
For CAATAAGA, the binding signal was -0.0698 E-score.
As to ACGGGTGA, the binding signal amounted to 0.146 E-score.
With AGTGACAC, the binding signal came out at 0.469 E-score.
With AAATTTGA, the binding signal was 0.0631 E-score.
For the sequence AACATTAC, the binding signal was -0.133 E-score.
As to GAACGGAC, the binding signal is 0.0365 E-score.
With AACTTTCC the figure was -0.201 E-score; with ACGTCGAA, -0.249 E-score; with ATGGCCTC, -0.146 E-score.
Regarding CTCTATAC, the binding signal was -0.0659 E-score.
With CTCCTAAC the figure was 0.101 E-score; with AGTATTTC, -0.203 E-score.
Then ACTAACTA, with 0.00173 E-score; and TCGCCTCA, with -0.238 E-score.
As for GAGGCGAC, the binding signal is -0.0751 E-score.
Regarding ACCTCACA, the binding signal turned out to be 0.244 E-score.
As to GATCCGAC, the binding signal was 0.0461 E-score.
In the case of CCTACAGG, the binding signal is -0.0239 E-score.
With AAATATTA, the binding signal stood at 0.184 E-score.
As for AGTGAAAC, the binding signal is -0.032 E-score.
With ATGCGATC the figure was -0.102 E-score; with AGTTCTTG, -0.155 E-score; with CCATTAAC, 0.0974 E-score.
On to GTATTTGA, for which the binding signal is -0.113 E-score.
With TGTTGTAA the figure was -0.118 E-score; with TATATATA, 0.181 E-score; with CGAAGCTA, -0.261 E-score.
As for ACCGGCTA, the binding signal was found to be 0.0742 E-score.
For the sequence ACCCAGTC, the binding signal was -0.0259 E-score.
Then CGTGGTCA, with -0.147 E-score; and TCAAGCGA, with -0.198 E-score.
For the sequence GTAGGGGA, the binding signal was determined as 0.0746 E-score.
As for GGCATGGA, the binding signal was -0.0648 E-score.
Take AACTGACA: the binding signal turned out to be 0.207 E-score.
Regarding CTCATTGC, the binding signal is -0.0338 E-score.
Turning to AGTCGGTG, the binding signal turned out to be 0.297 E-score.
For AGGTTAAA, the binding signal was -0.0439 E-score.
Turning to AGGAACTG, the binding signal was -0.385 E-score.
For CGTGTTCA, the binding signal was found to be 0.409 E-score.
With ATCTTTGA, the binding signal was -0.153 E-score.
For CATGACTA, the binding signal was -0.0566 E-score.
For the sequence AAGCCAAC, the binding signal is -0.0607 E-score.
Then GCTTTGTA, with -0.103 E-score.
Regarding CGTTACTA, the binding signal is -0.102 E-score.
Regarding CAAGAGAG, the binding signal was -0.2 E-score.
With ACAAGAGA the figure was 0.0143 E-score.
With ATGGGAGG the figure was -0.0623 E-score; with AAGCATCT, -0.249 E-score.
With CTCCTATA the figure was -0.0502 E-score; with ATCTAGGG, -0.113 E-score.
As for AGAGAACT, the binding signal was -0.047 E-score.
On to TACCTGGA, for which the binding signal stood at 0.0313 E-score.
On to GCGAGACA, for which the binding signal was 0.249 E-score.
On to CTAACCCC, for which the binding signal amounted to 0.223 E-score.
For the sequence TATGAAAA, the binding signal is -0.202 E-score.
For the sequence CCATCCAG, the binding signal was -0.012 E-score.
As to CAGCCGGA, the binding signal is -0.0688 E-score.
For CAAGCATA, the binding signal is -0.133 E-score.
Regarding TAGACCGA, the binding signal turned out to be 0.087 E-score.
Turning to AATTATTC, the binding signal is -0.172 E-score.
For ACACCTGG, the binding signal was determined as 0.448 E-score.
With AACAGCGC the figure was -0.175 E-score; with AGGCGCCC, -0.295 E-score; with CAAAGGCC, -0.285 E-score.
CGCACCCC: the binding signal was 0.207 E-score.
Regarding CATTAATG, the binding signal came to 0.0899 E-score.
ACATCGCC: the binding signal amounted to 0.102 E-score.
Turning to GATACAGA, the binding signal is -0.106 E-score.
Take GAAACACA: the binding signal is 0.108 E-score.
Take CACCATAG: the binding signal is 0.292 E-score.
Take ACCAACGG: the binding signal was found to be 0.126 E-score.
Regarding TAACGCTA, the binding signal amounted to 0.0739 E-score.
Then ACCAATTC, with -0.162 E-score; and ATGGTAAA, with -0.162 E-score.
Then GTCGCGGA, with 0.0112 E-score; and AGTCTCTA, with -0.274 E-score; and AATTAAGT, with 0.0101 E-score.
With ACATTTTA the figure was -0.121 E-score; with CCCCACCC, 0.278 E-score; with ACAAGCCT, -0.145 E-score.
AGGCAGCC: the binding signal was -0.141 E-score.
Turning to CATCGAGC, the binding signal is -0.11 E-score.
AAGAGAAG: the binding signal was -0.0968 E-score.
For the sequence GCATTCGA, the binding signal worked out at 0.0752 E-score.
With CCAATGGA the figure was 0.0185 E-score; with AGTTGCCC, -0.0853 E-score.
With GAAATATC the figure was -0.0287 E-score; with GAGAATTA, -0.251 E-score.
Then AACATCAC, with -0.000915 E-score; and CCTAGAGG, with 0.00898 E-score.
For the sequence ATAGCGCG, the binding signal was -0.0439 E-score.
In the case of ACATGCTA, the binding signal is -0.188 E-score.
For the sequence ATTGCCTG, the binding signal was -0.075 E-score.
Then GAGCGTTA, with -0.0157 E-score.
Consider ACCGAGCG, for which the binding signal was determined as 0.0767 E-score.
In the case of GCTGTGAC, the binding signal came to 0.0771 E-score.
With GCAAAGCA the figure was -0.116 E-score; with AGAGGTAC, -0.00898 E-score; with CCACCGCG, 0.0122 E-score.
For the sequence ACCATCGC, the binding signal was -0.0465 E-score.
With AGGTACCG, the binding signal was -0.213 E-score.
With CGGAAGAA, the binding signal is -0.224 E-score.
On to ACTCTTGA, for which the binding signal turned out to be 0.0639 E-score.
On to ACATATGA, for which the binding signal was -0.0772 E-score.
